Assay results reported in PubChem BioAssay AID760 (NMMLSC, 2007).
The whole screen tested about 190,000 compounds, of which about 360 (0.19%) were called active. Inconclusive results, whose numbers are uncertain, are shown with a selection of clear calls.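 How the source made its calls: active means GTP binding activity at least 20 points away from 100%, either lowered or raised; inconclusive means signal likely due to the compound's own green fluorescence; inactive means the rest.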

Target: Ras-related protein Rab-2A (Canis lupus familiaris) (UniProt P61105)
Experiment: Rab2 wt fluorescent GTP binding changes, either direction – biochemical, dog, bead-based flow cytometry, multiplex, primary screen (AID 760);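 further: 0% = beads with excess unlabeled GTP and 100% = no-compound control corrected for plate trend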
Conditions: GST-Rab2 wt beads, Bodipy-GTP binding, at 10 µM

GTP binding activity, inactive:
Cc1ccc(/C=N/NC(=O)C2CCN(Cc3ccc(F)cc3Cl)CC2)o1 100%
O=S(=O)(/N=C(/Nc1ccccc1)c1ccccc1O)c1ccccc1 96%
CC(=O)Nc1nc(SCC(=O)NCc2ccc(F)cc2)[nH]c(=O)c1NC(=O)c1cccs1 91%
CC(C)c1ccc(O)c(NC(=S)NC(=O)CCc2ccccc2)c1 97%
CCOC(=O)C1(Cc2ccccc2C(F)(F)F)CCN(CC(O)CO)CC1 (configuration not stated) 98%
C=CCOc1ccc(C2CC(C)=NN2c2ccccc2)cc1 (configuration not stated) 99%
N[C@@H](Cc1ccccc1)c1nnc(SCc2ccccc2F)o1 98%
Cc1cccc(NC(=O)CSc2ccc(C(N)=O)cc2[N+](=O)[O-])c1C 100%
C/C(Cl)=C\COc1cc(C)nc2c(Br)cccc12 95%

GTP binding activity, active:
O=C(Cn1cnc2c(nnn2Cc2ccccc2F)c1=O)NCC1CCCO1 (configuration not stated) 126% [activator]
COc1ccc(OC)c(S(=O)(=O)Nc2ccc(O)c(Sc3ncn[nH]3)c2)c1 35%

GTP binding activity, inconclusive:
O=C1OC(Oc2ccccc2)(c2ccccc2)c2ccccc21 (configuration not stated) 109%
O=C(/C=C/c1ccc([N+](=O)[O-])cc1)NC1CC2CCC1C2 (configuration not stated) 96%
Cc1cc(C)c(NC(=O)Cn2cc3c(n2)CCCC3)c(C)c1 100%
Cc1cc(C)nc(NNC(=O)NC2CCCCC2)n1 94%
O=C(Cc1coc(-c2ccc(F)cc2)n1)NCc1ccccc1 105%
COc1ccc(N(CC(=O)Nc2ccccc2C(=O)O)S(=O)(=O)c2ccc(C)c([N+](=O)[O-])c2)cc1 88%
O=C(Oc1ccc2c(c1)O/C(=C\c1ccncc1)C2=O)c1ccccc1 94%
Cn1c(=O)c2ncn(CC(=O)NCCOc3ccc(C(C)(C)C)cc3)c2n(C)c1=O 105%
CC(C)N1C(=O)/C(=C\c2nc3ccccc3c(=O)[nH]2)c2ccccc21 98%
CC(C)Oc1cccc(C(=O)NC(=S)Nc2ccc3c4c(cccc24)CC3)c1 86%
COC(=O)C1=C(C)N(c2cc(C)cc(C)c2)/C(=C/c2ccco2)C1=O 91%
O=C1C2C3C=CC(C3)C2C(=O)N1c1cccnc1 (configuration not stated) 90%
Nc1ncc(Br)cc1S(=O)(=O)NCCC(=O)Nc1cccc(Cl)c1 104%
O=C(O)C1C2C=CC(C2)C1C(=O)Nc1ccc(C(=O)N2CCCCC2)cc1 (configuration not stated) 105%
CCOc1ccccc1-c1c2cc(O)c(=O)cc-2oc2cc(O)c(O)cc12 272%
Cc1c(NC(=O)/C(C#N)=C/c2ccc(-c3cc(Cl)ccc3Cl)o2)c(=O)n(-c2ccccc2)n1C 74%
CC(C)N(C(=O)CSc1nnc(CSc2ncccn2)n1C)C(C)C 102%
O=c1cc(-c2ccc(O)c(-c3c(O)cc(O)c4c(=O)cc(-c5ccc(O)cc5)oc34)c2)oc2cc(O)cc(O)c12 91%
CCOC(=O)c1ccc2c(c1)[n+](CC)c(C)n2-c1ccccc1 97%
O=C(COc1ccccc1)Nc1ccc(N2CCN(C(=O)c3cccs3)CC2)cc1 94%
CCC(C)(C)n1nnnc1CN1CCc2ccccc21 92%
CCCCN(C)CCOc1ccccc1OCC 106%
CC(OC(=O)CCC(=O)c1cccs1)C(=O)Nc1ccccc1[N+](=O)[O-] (configuration not stated) 90%
CC1CCCC(NC(=O)COC(=O)Cc2ccsc2)C1C (configuration not stated) 96%
CCC(CC)C(=O)NCCN1CCN(C(=O)C(CC)CC)CC1 106%
Cc1cccc(C(=O)NC(=S)NNC(=O)c2ccc(Cl)cc2)c1 94%
Cc1ccc(NC(=O)CSc2nnc(-c3ccncc3)o2)cc1 104%
Cc1ccc(C(=O)CC(C(=O)O)P(=O)(c2ccccc2)c2ccccc2)cc1 (configuration not stated) 92%
O=C(O)C1C2C=CC(O2)C1C(=O)Nc1ccccc1C(F)(F)F (configuration not stated) 105%
CC(C)OC(=O)CSc1n[nH]c(-c2cccnc2)n1 106%
O=C1Nc2cc(Cl)c(Cl)cc2N(O)N1c1ccccc1 93%
CC(=O)Nc1cccc(NC(=O)c2ccc([N+](=O)[O-])cc2Cl)c1 101%
CCCn1c(N)c(C(=O)NS(=O)(=O)c2ccc(C)cc2)c(=O)n(C)c1=O 87%
CCN1CCN(C(=O)c2c(-c3c(F)cccc3Cl)noc2C)CC1 104%
COc1ccc(-c2[nH]nc3oc(=O)cc(C)c23)cc1 98%
CCCCOC(=O)Nc1nc2ccc(OC)cc2s1 107%
